The record followed here is PMC4336329 (PLoS ONE, 2015).

Screen size: about 310,000 compounds; about 14,000 (4.5%) showed an effect of 50% or more. Effects have a minus sign here. The list shows a part of the results.
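Further: peak tail current of the secondary pulse compared with the same well before compound.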

The target of this assay is human ether-à-go-go-related gene (hERG) potassium channel (human, UniProt Q12809). Put plainly: primary screen, population patch clamp on CHO cells stably expressing hERG.
Sequence of human ether-à-go-go-related gene (hERG) potassium channel (Q12809 whole entry, looked up): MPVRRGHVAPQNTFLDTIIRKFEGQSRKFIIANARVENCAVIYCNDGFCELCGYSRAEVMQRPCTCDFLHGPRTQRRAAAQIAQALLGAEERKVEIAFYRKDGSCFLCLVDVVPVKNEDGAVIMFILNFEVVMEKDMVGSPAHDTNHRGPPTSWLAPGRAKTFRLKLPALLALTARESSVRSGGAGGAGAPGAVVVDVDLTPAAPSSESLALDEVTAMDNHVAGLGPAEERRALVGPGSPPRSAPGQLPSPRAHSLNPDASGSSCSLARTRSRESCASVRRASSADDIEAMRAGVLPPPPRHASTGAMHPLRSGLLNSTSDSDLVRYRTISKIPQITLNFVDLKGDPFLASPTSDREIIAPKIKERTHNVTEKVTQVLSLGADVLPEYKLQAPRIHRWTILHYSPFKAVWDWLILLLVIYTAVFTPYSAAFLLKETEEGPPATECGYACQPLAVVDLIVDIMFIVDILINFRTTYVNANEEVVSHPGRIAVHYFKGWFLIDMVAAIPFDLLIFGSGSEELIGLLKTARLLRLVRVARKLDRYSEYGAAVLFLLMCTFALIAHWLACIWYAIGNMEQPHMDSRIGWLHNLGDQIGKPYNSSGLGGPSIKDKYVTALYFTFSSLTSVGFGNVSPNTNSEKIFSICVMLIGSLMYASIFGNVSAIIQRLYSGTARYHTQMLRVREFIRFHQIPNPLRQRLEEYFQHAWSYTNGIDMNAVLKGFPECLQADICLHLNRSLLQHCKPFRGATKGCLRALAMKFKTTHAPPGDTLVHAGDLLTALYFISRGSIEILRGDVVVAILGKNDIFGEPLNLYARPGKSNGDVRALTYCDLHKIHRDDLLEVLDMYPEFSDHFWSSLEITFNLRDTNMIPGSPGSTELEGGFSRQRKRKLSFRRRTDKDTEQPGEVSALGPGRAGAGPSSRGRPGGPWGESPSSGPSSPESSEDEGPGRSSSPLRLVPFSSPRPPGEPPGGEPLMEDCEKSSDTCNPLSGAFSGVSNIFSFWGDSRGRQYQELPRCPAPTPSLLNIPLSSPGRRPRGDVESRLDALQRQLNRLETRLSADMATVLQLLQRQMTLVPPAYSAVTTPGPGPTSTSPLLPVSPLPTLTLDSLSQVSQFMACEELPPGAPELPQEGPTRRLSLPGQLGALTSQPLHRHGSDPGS
For the compound `COc1cc(C(=O)NC2CCCc3ccccc32)cc(OC)c1C` (stereo not drawn), the “hERG current change (%, negative = inhibition) at 10uM” value was 20.8%.

Take `CCOC(=O)Cn1nc(C)c(-c2ccccc2)c1N`: the “hERG current change (%, negative = inhibition) at 10uM” value is 9.36%.

With `O=C(OCc1ccc(F)cc1)c1ccc2c(c1)-c1ccccc1C2=O`, the “hERG current change (%, negative = inhibition) at 10uM” value is given as 12.2%.

Consider `COc1cccc(OCc2cc(C(=O)NCc3ccc4c(c3)OCO4)no2)c1`, for which the “hERG current change (%, negative = inhibition) at 10uM” value came to 1.23%.

On to `CCN(Cc1ccccc1)C(=O)C1CCN(C/C(C)=C/c2ccccc2)CC1.O=C(O)C(=O)O`, for which the “hERG current change (%, negative = inhibition) at 10uM” value is -70.4%.

Take `CCOc1ccc(NC(=O)CSc2nc(=O)n(CCCN3CCOCC3)c3c2CCC3)cc1`: the “hERG current change (%, negative = inhibition) at 10uM” value was -24.1%.

On to `C[C@@H](O)C(C(=O)N1CCNCC1)n1cc([C@@H](N)CCCCN)nn1` (stereo partly drawn), for which the “hERG current change (%, negative = inhibition) at 10uM” value is recorded as -22.5%.

Take `COc1ccc(OCC(=O)Nc2cccc3cccnc23)cc1`: the “hERG current change (%, negative = inhibition) at 10uM” value is on record as -3%.

As to `O=C(Nc1cccc(S(=O)(=O)C(F)F)c1)c1ccc(S(=O)(=O)N2CCOCC2)cc1`, the “hERG current change (%, negative = inhibition) at 10uM” value is on record as -30.8%.

In the case of `CCCCCCSc1ccc([C@H]2N[C@@](CC(C)C)(C(=O)OC)[C@H]3C(=O)N(CC)C(=O)[C@@H]23)cc1.O=C(O)C(F)(F)F`, the “hERG current change (%, negative = inhibition) at 10uM” value is reported as -0.125%.

With `N=C1/C(=C/c2ccc(OCc3ccccc3)cc2)C(=O)N=C2SC(CC(=O)N3CCOCC3)=NN12`, the “hERG current change (%, negative = inhibition) at 10uM” value stood at 11.6%.

`Cc1ccc(-n2[nH]c3c4c(ccc3c2=O)C(=O)c2ccccc2C4=O)cc1`: the “hERG current change (%, negative = inhibition) at 10uM” value is given as -0.491%.

With `CC(=O)CCn1cc([N+](=O)[O-])nc1C`, the “hERG current change (%, negative = inhibition) at 10uM” value is 7.91%.

With `CC(C)N(C)Cc1nnnn1CC(=O)N(C)Cc1ccc(F)cc1`, the “hERG current change (%, negative = inhibition) at 10uM” value is reported as -14.2%.

Turning to `Cc1ccc(Cl)cc1NC(=S)N(Cc1cccs1)C1CCCC1`, the “hERG current change (%, negative = inhibition) at 10uM” value amounted to 20.1%.

For `COc1ccc(C)cc1NC(=O)Nc1ccc(Br)cn1`, the “hERG current change (%, negative = inhibition) at 10uM” value is given as 15.5%.

For the compound `O=C(NCc1ccccc1Cl)C1CCCN(C(=O)Nc2ccc(F)cc2)C1` (stereo not drawn), the “hERG current change (%, negative = inhibition) at 10uM” value was -2.13%.

As to `CCOC(=O)c1c(CSc2ccccc2)oc2ccc(O)cc12`, the “hERG current change (%, negative = inhibition) at 10uM” value was found to be 3.91%.

Consider `O=C(Nc1ccccc1N1CCN(C(=O)c2ccccc2)CC1)c1ccco1`, for which the “hERG current change (%, negative = inhibition) at 10uM” value was -74.2%.

As to `Cn1c(C(=O)N2CCCC(C(=O)NCCc3ccccc3)C2)cc2sccc21` (stereo not drawn), the “hERG current change (%, negative = inhibition) at 10uM” value is reported as -36.5%.

Turning to `O=C(Nc1cccc(C(=O)N2CCCCC2)c1)c1ccccc1Br`, the “hERG current change (%, negative = inhibition) at 10uM” value is recorded as -24.4%.

With `CN(CC(=O)Nc1ccncc1)S(=O)(=O)c1ccc(Br)cc1`, the “hERG current change (%, negative = inhibition) at 10uM” value is reported as -17.9%.

For `CCOc1ccc(CSc2nc(C)cc(COC)c2C#N)cc1OCC`, the “hERG current change (%, negative = inhibition) at 10uM” value was found to be 14.5%.

On to `O=C(NCCCc1ccccc1)C1CCN(c2nnc(-n3cccc3)s2)CC1`, for which the “hERG current change (%, negative = inhibition) at 10uM” value is recorded as -27%.
